# The campaign covered roughly 310,000 compounds. About 14,000 (4.5%) showed an effect of 50% or more. The effect is printed as a negative number. Some of the results follow.
# Molecular target: human ether-à-go-go-related gene (hERG) potassium channel (human, UniProt Q12809)
# Test: primary screen, population patch clamp on CHO cells stably expressing hERG
# 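Note: peak tail current of the secondary pulse compared with the same well before compound.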
# Sequence of human ether-à-go-go-related gene (hERG) potassium channel (Q12809 whole entry, looked up): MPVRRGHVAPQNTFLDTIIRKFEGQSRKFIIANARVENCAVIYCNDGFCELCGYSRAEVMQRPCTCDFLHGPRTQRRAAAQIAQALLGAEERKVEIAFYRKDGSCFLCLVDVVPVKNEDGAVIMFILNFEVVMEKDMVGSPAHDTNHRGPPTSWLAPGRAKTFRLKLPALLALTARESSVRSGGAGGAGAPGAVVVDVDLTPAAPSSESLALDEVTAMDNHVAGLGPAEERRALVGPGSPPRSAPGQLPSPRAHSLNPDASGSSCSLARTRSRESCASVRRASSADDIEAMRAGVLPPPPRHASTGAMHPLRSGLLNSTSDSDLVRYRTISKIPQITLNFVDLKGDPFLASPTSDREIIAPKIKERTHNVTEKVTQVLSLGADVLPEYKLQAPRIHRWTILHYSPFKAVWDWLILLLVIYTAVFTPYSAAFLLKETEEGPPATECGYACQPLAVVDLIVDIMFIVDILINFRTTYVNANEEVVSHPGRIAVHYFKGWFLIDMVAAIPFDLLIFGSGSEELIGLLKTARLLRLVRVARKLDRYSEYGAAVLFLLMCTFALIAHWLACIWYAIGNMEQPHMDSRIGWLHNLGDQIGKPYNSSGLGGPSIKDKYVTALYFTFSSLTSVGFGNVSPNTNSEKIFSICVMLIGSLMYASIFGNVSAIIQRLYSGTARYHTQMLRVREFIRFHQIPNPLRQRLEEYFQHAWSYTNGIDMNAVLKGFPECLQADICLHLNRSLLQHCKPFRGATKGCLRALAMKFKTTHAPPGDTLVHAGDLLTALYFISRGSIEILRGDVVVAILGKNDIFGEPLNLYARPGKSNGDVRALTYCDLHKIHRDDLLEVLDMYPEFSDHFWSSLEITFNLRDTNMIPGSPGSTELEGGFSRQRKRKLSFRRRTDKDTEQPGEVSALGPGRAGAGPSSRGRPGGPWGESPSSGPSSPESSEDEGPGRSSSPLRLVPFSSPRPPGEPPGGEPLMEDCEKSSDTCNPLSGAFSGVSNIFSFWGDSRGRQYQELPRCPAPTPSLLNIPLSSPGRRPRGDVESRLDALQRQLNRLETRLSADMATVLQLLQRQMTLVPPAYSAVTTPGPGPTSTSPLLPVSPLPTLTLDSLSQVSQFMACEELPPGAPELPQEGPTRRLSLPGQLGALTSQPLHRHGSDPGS
row,Structure (SMILES),"hERG current change (%, negative = inhibition) at 10uM [%]"
1,C[C@@H]1NC(=O)c2cc([N+](=O)[O-])cc(I)c2NCCCC[C@@H](C(N)=O)NC(=O)[C@H](CCC(=O)O)NC1=O,-9.34
2,Cc1ccc(S(=O)(=O)N(C)Cc2ccc(C(=O)N/N=C/c3ccc(OC(F)F)cc3OC(F)F)cc2)cc1,-3.1
3,O=C(Nc1nnc(-c2cccs2)o1)c1cc(-c2ccccc2)nc2ccccc12,-4.92
4,Clc1nccnc1-c1ccccc1,2.2
5,CC(=O)N1CCC(N(CCN2CCOCC2)C(=S)Nc2ccccc2C)CC1,7.98
6,CC(C)(C)OC(=O)NCCCCCNC(=O)c1[nH]cnc1C(=O)Nc1ccc(Cl)cc1,-6.26
7,CC(=O)c1sc(-c2ccc(F)cc2)cc1NS(=O)(=O)c1ccc(C)cc1,7.93
8,COC(=O)C1=C(O)/C(=C\c2ccc(OCC(=O)Nc3ccc(OC)cc3)cc2)N=C1C,18.4
9,Cc1ccc(C(c2nnnn2C(C)(C)C)N2CCC(C)CC2)cc1.Cl (stereo not shown),-16.4
10,Cc1nnc(N2CCOCC2)c2ccccc12,11.1
11,COc1cc(F)c(C2=CC(=O)C[C@H](c3ccc4c(c3)OCO4)C2)cc1F,16.1
12,Cc1ccc(-n2c(=O)cc(N3CCc4ccccc4C3)[nH]c2=O)cc1,-2.39
13,O=C1CCCN1CCC1CCN(C2CC(=O)N(c3ccc(F)cc3)C2=O)CC1 (stereo not shown),-1.11
14,COc1cc(Nc2cc(C)nc3ncnn23)cc(OC)c1,-8.29
15,NC(=O)c1ccc(Br)c(S(=O)(=O)N2CCCCC2)c1,-16.1
16,CC(=O)C(Cc1ccccc1)NC(=O)CCl (stereo not shown),18.3
17,Cc1c(C(=O)NCc2nnc(-c3ccccc3)o2)oc2c(F)cccc12,1.28
18,COc1cccc(C(=O)NCc2ccc3c(c2)OCO3)c1,4.82
19,CNC(=O)Oc1ccc(C(=O)N2c3ccccc3NC(=O)C2C)cc1 (stereo not shown),8.73
20,Cc1ccc(NC(=O)CNC(=O)c2ccco2)c(Cl)c1,1.11
21,CCn1nc(C)c(CNC(=O)CC2C(=O)NCCN2CC(C)(C)C)c1C (stereo not shown),9.14
22,CC(=O)c1cccc(NC(=O)NNC(=O)c2ccc3ccccc3c2)c1,2.69
23,O=C(O)C1C2C=CC(C2)C1C(=O)NCCCn1ccnc1 (stereo not shown),-17.7
24,CCCc1ccc(Oc2cc(NN3CCCCC3)c([N+](=O)[O-])cc2[N+](=O)[O-])cc1,-9.7
25,CC1=C(C(=O)Nc2cccc([N+](=O)[O-])c2)C2(CCC(C)CC2)OC1=O (stereo not shown),-2.84
26,CCc1c(C)sc(NC(=O)Cn2nc(C(F)(F)F)c3c2CCCC3)c1C#N,-15.1
27,Cc1cc(C)cc(N(CCC#N)C(=O)COC(=O)C2CCN(S(=O)(=O)c3ccc(C)c(C)c3)CC2)c1,-8
28,O=C(NCCN1CCOCC1)c1cc(Sc2ccccc2Cl)nc2ccccc12,-27.1

row,Structure (SMILES),"hERG current change (%, negative = inhibition) at 10uM [%]"
1,CC(=O)c1sc(NC(=O)C2(F)C(F)(F)C(F)(F)C(F)(F)C(F)(F)C2(F)F)nc1C,1.32
2,COc1ccc(NC(=O)CSc2nc3c(cc2C#N)CN(C)CC3)cc1,-9.72
3,CCOC(=O)c1c(C)[nH]c(C=Nc2ccc(OC)cc2)c1O,-11.3
4,CCOC(=O)c1[nH]c2cc3c(cc2c1NC(=O)CN1CCC2(CC1)OCCO2)OCO3,4.19
5,Cc1cccc(OCCn2c(S(=O)(=O)O)nc3ccccc32)c1,5.42
6,COc1ccc(-c2[nH]ncc2CN2CCCC(C(=O)c3ccc(OC)cc3OC)C2)cc1 (stereo not shown),-65
7,C#CCOc1ccc(/C=N/NC(=O)c2cccnc2)cc1OCC,3.22
8,CCOc1ccc2nc(SCC(=O)N(CCOC)c3c(N)n(Cc4ccccc4)c(=O)[nH]c3=O)[nH]c2c1,6.86
9,O=C(CCN1CCN(c2ccccc2F)CC1)Nc1cccc(F)c1,-44.2
10,O=C(O)c1ccccc1-c1ncc(-c2ccccc2)o1,6.94
11,COc1ccc(C(=O)Nn2c(C)nc3ccccc3c2=O)c(OC)c1,-21.9
12,CCOC(=O)c1ccc(NC(=O)COc2coc(CN3CCc4ccccc43)cc2=O)cc1,4.35
13,CC(=O)Nc1ccc(S(=O)(=O)NC2=NCN(c3ccc([N+](=O)[O-])cc3)CN2)cc1,27.5
14,Cc1ccccc1NS(=O)(=O)c1ccc2oc(=O)ccc2c1,6.07
15,O=C(COc1ccc2c3c(c(=O)oc2c1)CCC3)N[C@@H](CSCc1ccccc1)C(=O)O,7.39
16,[O-][n+]1c2c(nc3c1-c1ccccc1C3O)CCCC2 (stereo not shown),-2.12
17,COc1cc(C(=O)Nc2cccc(-n3cnnn3)c2)cc(Cl)c1OC,-5.07
18,Nn1c(COc2ccc(Cl)cc2)nc2ccccc2c1=O,-34.8
19,COCCOCCn1cnc2ccccc21,14.9
20,CCc1ccc(/C(C)=N\Nc2ccc([N+](=O)[O-])cc2)cc1,-8.23
21,CCS(=O)(=O)c1ncc(Cl)c(C(=O)Nc2ccccc2OC)n1,21.9
22,CC(=O)Oc1ccc(C(=O)Nc2cccc(-c3nnc(-c4ccco4)o3)c2)cc1,0.775
23,O=c1c2ccccc2nc2ccc(NCc3cccs3)nn12,-18.9
24,COc1ccc(/C=C2/C(=N)N3N=C(CC(=O)N4CCCC4)SC3=NC2=O)cc1OC,23.2
25,COc1cccc(-c2csc(N3CCN(C(=O)C4CCCCC4)CC3)n2)c1,-6.39
26,O=C1C(Cl)=C(N2CCCCCC2)C(=O)N1c1ccc(Br)cc1,1.35
27,Cc1cc(C(=O)O)ccc1-n1c(C)cc(/C=C(/C#N)C(=O)Nc2ccccc2)c1C,15.1

# — PMC4336329 (PLoS ONE, 2015)
